Assay results from article PMC10726135.
The other results are listed elsewhere or left out. At the low end of the ranking the order means little. The protein was read in a cell extract, so binding may be indirect.

target: T1, HNF4alpha8 (COS-7 nuclear extract) (UniProt P41235-5); test: protein-binding microarray; conditions: COS-7 nuclear extract on double-stranded Agilent 4x180k PBM; binding buffer, salt, pH and temperature not given; high values mean tight binding; double strand, one strand shown; sequences stand for … in …GCCTAGGGAGATTAGAGTATCGGTCGA
T1 sequence: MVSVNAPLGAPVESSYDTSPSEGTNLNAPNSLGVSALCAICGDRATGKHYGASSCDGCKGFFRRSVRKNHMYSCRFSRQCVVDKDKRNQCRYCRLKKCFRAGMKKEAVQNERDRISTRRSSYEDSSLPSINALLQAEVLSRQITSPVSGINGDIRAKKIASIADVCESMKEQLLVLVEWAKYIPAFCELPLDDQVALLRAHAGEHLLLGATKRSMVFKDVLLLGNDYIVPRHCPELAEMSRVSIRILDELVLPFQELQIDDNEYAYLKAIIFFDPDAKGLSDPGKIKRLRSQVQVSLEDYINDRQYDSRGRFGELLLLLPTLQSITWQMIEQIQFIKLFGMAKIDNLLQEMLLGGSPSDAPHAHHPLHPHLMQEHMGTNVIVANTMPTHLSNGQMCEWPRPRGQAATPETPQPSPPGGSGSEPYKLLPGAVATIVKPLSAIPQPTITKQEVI

Row | Sequence | binding signal (log2 normalized intensity)
1 | CCCTTCCTCTGCAGCCGCCCTTTTGCCTCC | 2.92
2 | AACAAAACACGGACTTTGAAGCTCCAAGAT | 1.81
3 | CAGCCTGATACCAGATCCTTCAGCCAAGGA | -1.36
4 | GAGTTGTCATCATAAAAGTTCTCATGCTAA | -0.91
5 | CTAGAGGCCTTCTCTGTGAACACACCGTAG | -1.29
6 | AGGCTGTTCTGATGCCATTCCCTGCAGGTG | -1.24
7 | ATTGTTAGCCTAAACTATCTGGTGCGGTCC | 0.59
8 | GCCCTTCCCTAACCCTTCAAGGGCCACTCA | -0.669
9 | GCAAGACGCCGTCTCAAAAAAAAAAAAAAG | -1.3
10 | GCTTCCCTTTCTACTGCCAGCCAGGGCCAC | -1.02
11 | GGCCATTCCAGTTTTGGAGAGGGGAACGAT | -1.19
12 | CAATATTTGTTAAGTACCCACTATAGATTG | 0.68
13 | TGTGATAAGGTGTTGAAAAGAGCATAAGGT | 0.243
14 | AGAAAAAGAAAAGCCTTGTGGCAGTGAGAA | -1.36
15 | TCCATATTTGGAAGTAAGAACCCCACTATT | 2.85
16 | CCAAATTCTCCCAGGCCATACAGATACCCA | -1.13
17 | AACCACCTATTCTGAAGATTGCTAGCTGAG | -1.37
18 | TGGAACAAGGTCCCATGCACTGGCCTGGAT | -1.01
19 | CCCGGACCAGGCCGGGTCACGTGGGTCCAG | 3.63
20 | AAGCACATCCTGTTCTAGCTCGGGGGCCCT | -1.28
21 | TTAGAGAAAGGGTCAAAGGTTAAGCCATTG | 6.33
22 | TGCTTCTTGGCCTCTTTGTTTACACTGTGA | 1.68
23 | ACAGGGAAAGTATGGGTCAGCCCTGCCATC | -0.943
24 | TGTTATTTGCTGAGGTGGGGGAGGTAGGTA | -1.3
25 | TGCGACTGAGCCCTAAGAAATCTCCAAGTC | -1.29

Row | Sequence | binding signal (log2 normalized intensity)
26 | CTAGGATCACGCCATGAGTTGGGGACAAAG | -1.24
27 | AGGATTCTTTATCTTAGCTTCAGCTTTGCT | -1.35
28 | TGTCTGGCTAAGACCTTTAGTTAGCCTTTC | 1.16
29 | AGAACGTTCCAAACCTACACAGACCCTCTT | -0.978
30 | GCCCCATGCTGATAAGGGCCACAGATGGCC | 0.367
31 | TCAAAGGGACAGCACTGGCATGCAGCAGGG | -1.29
32 | ACCTTTGGGCTCTGACCCGAAGGGTAGGAG | 0.687
33 | AGTGATAAGGAACCTAGGAAATCAAAAACC | -0.896
34 | GTAAATGATTCTCTTTGGAAATTGATTGGG | -0.0269
35 | TGATAGCATCCCAGTAGAAAAAAAAATGGG | -1.29
36 | AAATCAGCCAGTGATTCAACTCTGACCCAT | 3.6
37 | TGTTCCCGTCCGTGCGGTCGGGCGCGCGGG | -1.19
38 | TGAAAGCCAAGGCAGATATGAAAGAGCCAT | -1.52
39 | TTCCAGGGTTACCGGCAGAGAGAAGCCACT | -1.24
40 | CTGCCAAATATTGGGCAATGCTAGGTCTTT | -0.524
41 | GGTGGACAAGACTGGTTTTTCAGATCCCTC | -1.22
42 | GCATGAGGCCCCTTGCAATGCTGGAGGGAC | -1.37
43 | CCGCTGGCGCCATCCAAAGGCCCGAGGGCC | -1.36
44 | AAGTCTTTCCCTGCCAGTTCCATGTAATCC | 0.923
45 | CCAAGTGAGTAAGGAAAGCCACTTCCTGGC | -1.4
46 | CTGGTGCAGTCCAAGAGGCCCAGGTAAACA | -1.44
47 | GCAAACAGCACTCTCTGATTACACAGGCCT | -1.25
48 | AGCTACTAGCAAATCTGCCCAACCTTTGCC | 2.1
49 | CTGGGAAGAGAAGGTGAACTTGCTCAACCT | -1.29
50 | CTACCGTACCTAGGACAAAGCAAACACTCA | -1.31

Row | Sequence | binding signal (log2 normalized intensity)
51 | GATGTTTGCCCATGATCATATGGACTATGT | 3.89
52 | GTAACCTGCAAAGAGCAAACTCCAGTTGTA | -0.82
53 | AGCTCCACAGCTGGACTTTGGCTGCAAAAT | 4.98
54 | ATTGTCAGGCCAGTAGGTCAGTGTCCCTCT | 1.32
55 | GCTAACAGTAAAACTGAGATCTAAGCGATA | -1.36
56 | AGTGAGACAGACATGCGACATGAGGAGCCT | -1.23
57 | CTGGATCCGTTAACAGCGGCATTCCTGTCA | -1.14
58 | TTCCCTGAGTTTCCATTAACTGAACCTAGA | 1.69
59 | GTCTTAGGATCTGTGTTATGCTTGCAGGTG | 1.1
60 | TACAAACAGCCCTGACATTCTTGAGCTGCT | -1.24
61 | TGTAGACATTGGAATGCGGGCTCCACCACT | -1.23
62 | CCATATCACATTTTAAGGTCTGGCATTCTT | 1.1
63 | GTCACCCTCCCCGCCACCCCCCAGAGGGCC | 6.22
64 | TGAGCTTGAGTCCATCCCATCTTCCAGAAA | 0.159
65 | TCCCCCATGAAATTGAGATAAACATGAAAC | 2.15
66 | ACAGTAGGGAAAGTGGGGGGAAAGAATAAC | -1.32
67 | TTCTAGAACCAGGAATCCTAGGGAAGAAAC | -1.46
68 | GGAAGGCAACCACAGCCTCTGCATTTGCTC | -1.34
69 | TTAAATAAGTCCTAAGCCTTATTATCTGCT | -1.22
70 | CTCTTCCAAGTGTTCTTTACTTCCTTTTGT | 1.25
71 | TTTATTTACTTATGTTGTCCGGACACCAAC | 1.38
72 | TAAAAAATGCAAGTTTATCGAGCTTGATTT | -1.16
73 | GTGCACTTCTCTTTGAGTCCCAATCCCCCA | 4.6
74 | TGGAGGAGGGCGAGGCCGAGCCTCAGCCGG | -1.39
75 | GCACATGAATGATCAAAGGTTGGTTTTTGG | 3.51

Row | Sequence | binding signal (log2 normalized intensity)
76 | TCCTCCCATTCCAGCTCTTTACTCAGGTCA | 1.62
77 | CAGCCCCTTATCAGGAGAGGAGGCCCACAC | 0.00602
78 | CGGACTTTGTCCTTTGATTTTTTAAAGTAA | 5.37
79 | GATCAGTGTTGAGAATCCCTCCCCTGTGCA | 3.72
80 | GGCTAGCATTCCTGCACACCTGCCTTTGAT | -1.22
81 | CTTTTTGGGACTGATAACTTAGGCCCATAT | -1.28
82 | TTCAACAGAACTGTTTGAGGGTAAAGATCT | 0.813
83 | CTGCTTCTTGGGTCAAAGTCTCTGGTACAA | 3.25
84 | TAGCTTATCATCTGATCCTTGTACCTGCGA | 2.98
85 | TCCTATTTCAACATCCTCTCAGGTCAAAGT | 4.61
86 | GTAAATTATCTTGATGGTTAAAGTCCAATC | 5.58
87 | CCTTATCTGGCCGCCTAATCCCCTGGCCTT | 1.71
88 | TCTAGCTACAGGAGAACAAAGTTCACCTTT | 5.36
89 | GAGGCTCAGACCTGACCTTTGGATTCCCAG | 7.11
90 | AGGACCTTGGGAAAGGAGAAGCTGGAGATA | -1.21
91 | CACCTGTGGGTAATTAACTCCCCCTGCCCC | 4.79
92 | ACAGCAGCTGACAGATGGTGACCAGACTAC | -1.38
93 | AGAGTTCATAATTTTGGACTTTGTGCAAAT | 5.92
94 | GCGCGGCCTCCCCAGAGGCTGGTCAGAATT | 0.323
95 | CCTTGATGTGTATTTGTAGCTTCAAACCAG | 1.52
96 | ACACCAACCTGTTCCAAAGTCCACCGTGGT | 5.71
97 | CCCCCGGCTCTACGCAAGTGGTACCTCCCG | 2.76
98 | ATAGGCAGAAGGGACTAGCCTTATCTCAGA | -1.31
99 | TTTAACCAGAGTCTACAGGTCAGACCTGTT | 2.15
100 | CCTTTCTTTGTCTTTGCAATGTTGTCTTTT | 2.44

Row | Sequence | binding signal (log2 normalized intensity)
101 | GATAGATTTTGCATTGCTCACATAGCTGGG | -1.01
102 | TAACATGTATCAACATGTTTATCCTTCAAC | 0.691
103 | CTGTTTCTTTGTGTGTCAACAGAGTGCTTA | 1.48
104 | TTAGATTCCATGCAGCAGCATCCAGCCCCA | 3.38
105 | ATTGTCCAAGGGCTGTAGCAACCAAGTACC | -1.27
106 | TACAGTGATGTTTGTCAAATGCTTCCAAGA | -1.13
107 | CCTCCCTGCCTTAGTCCCAGTATGGTCTCA | 0.618
108 | ATTATCTACAGAGATAACAGGCCACAACTT | -1.38
109 | CCTCGTGGTGCTGATCCCAGCCCCACGGCT | -0.759
110 | GGCTGAACATGACTGGCATTCCCCTATGTC | 0.829
111 | TGAGATGAAGAGGCCAGGGGCACTCTCTGT | -1.3
112 | TCAAGGCTGCCTGGCAGGGTGGGGTGGGGG | -1.24
113 | ATTCATCCTCCAAAACCCAGTTCATAGGTC | 4.22
114 | AAAATTAAAGCGGACGGGCTGCGGAGGCGA | -1.32
115 | CATACTGAAAAAGGGTTGTGCAAACTTCAG | 0.304
116 | CCACACAGCACGTAATAGTTCATGAAATGG | 0.614
117 | TGGGGAAACTGTTATCTCTCAACTCAGTGA | -1.28
118 | GGACCGCCAAGGAAGCGATGGGCTGGCCCT | -1.37
119 | AAGAAAGTTCAGCCCTTAGGACCAGGGGGG | -1.24
120 | TTGGAAGCCACATTAAGTGACTTAATTATC | -1.33
121 | AATGACACTAGCAGAAGAGACAGTCAATTA | -1.29
122 | GCCACCATGCTCGGCTGCCTCTCCAAACAA | -1.34
123 | GCATATGCCAACAGGTGCTCTTTATCAGCA | -1.23
124 | CAGCGGTGCCTCAACCGAGCGTCCAAGCTC | -1.29
125 | GCCGCTGACAAGCAGCCTCAGTGGCTCACA | -1.19

Row | Sequence | binding signal (log2 normalized intensity)
126 | CGCTAGCTTTCTGGTCTTTGTTCTTTACTT | 2.2
127 | TCCAGGCTTGTCCTTTTGACCACAGTTATC | 3.01
128 | ACTATTTGATGAGTCTTAGAGTCCAGACAC | 2.06
129 | TGGGCATCTGCAGGGCAGCAGACTCAGAAA | -1.31
130 | TGAGTGAGTAGGTTCTCAGCTGACATTGGT | 0.632
131 | AATGTGACCCCTTTCATGAATAAATGACAT | 2.68
132 | AATGACTAAGGCAGGGAAGGAGAGTGACCT | 3.75
133 | TATTCATGTCCCTACCACATACAGAATCCT | 0.521
134 | AGAGAGGGACTAGAACTCAGTGTGAACTCA | 1.51
135 | CATGTTGGCATTCCAGGATGAAGGAAGAGG | -1.31
136 | AGTGGTTTAAAAACTTATCTTGTGACCTTT | 7.47
137 | GTAGGGCAGCAGCCGGCCTCTTAACAGATG | -1.3
138 | GCATCCCAGTAGAAAAAAAAATGGGCAAAG | -1.32
139 | GAGTACACTCAGCTGTGTCTACCCTTTTGC | 1.37
140 | AGACAGCATAGGAAGTGGGGAAGAAGTGTT | -1.3
141 | AGGAATTTGGCTCTAGAGGAGTCCCCTTAA | 0.669
142 | GGGAAGGCTAGCATTCCTGCACACCTGCCT | -1.33
143 | GCAGGGAAGGAGAGTGACCTCTGCTTGAAG | 2.67
144 | TACAGCAGGGTAGAAAAGAGTTAAAAAAAA | -1.36
145 | TCTTGTGGGCTGGGAGCTAATGAGCACATT | -1.29
